In PMC6400558 (2019):
Residue numbers refer to the chain shown, from its start. Names and notes keep the numbering of the source. No constants are given. Whether binding was seen depends on the method and setting. For some of these results: In cells and extracts the contact can be indirect. Some entries that bind do so weakly or less than the wild type. For some of these results: Tags and fused reporters may be left off the sequences shown.

Sequences of proteins named here, by UniProt entry; tags and fusion partners are left off. Residues count along the entry.
UniProt Q9Y6G9, residues 389-523: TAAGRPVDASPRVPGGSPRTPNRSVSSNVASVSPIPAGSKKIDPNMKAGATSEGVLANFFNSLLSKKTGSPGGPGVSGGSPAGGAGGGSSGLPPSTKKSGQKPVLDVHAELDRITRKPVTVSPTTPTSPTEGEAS
UniProt Q13561: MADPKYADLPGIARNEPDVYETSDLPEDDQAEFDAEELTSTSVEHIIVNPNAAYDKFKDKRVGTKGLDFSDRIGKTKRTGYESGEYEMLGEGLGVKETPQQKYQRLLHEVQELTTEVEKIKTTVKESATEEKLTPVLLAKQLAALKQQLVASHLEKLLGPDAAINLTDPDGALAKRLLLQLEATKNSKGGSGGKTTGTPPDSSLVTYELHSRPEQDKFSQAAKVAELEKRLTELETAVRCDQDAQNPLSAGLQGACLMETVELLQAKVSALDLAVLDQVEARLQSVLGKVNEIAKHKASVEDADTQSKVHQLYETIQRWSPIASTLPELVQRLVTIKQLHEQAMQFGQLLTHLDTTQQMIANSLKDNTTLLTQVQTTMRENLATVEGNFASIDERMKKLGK
UniProt P61163: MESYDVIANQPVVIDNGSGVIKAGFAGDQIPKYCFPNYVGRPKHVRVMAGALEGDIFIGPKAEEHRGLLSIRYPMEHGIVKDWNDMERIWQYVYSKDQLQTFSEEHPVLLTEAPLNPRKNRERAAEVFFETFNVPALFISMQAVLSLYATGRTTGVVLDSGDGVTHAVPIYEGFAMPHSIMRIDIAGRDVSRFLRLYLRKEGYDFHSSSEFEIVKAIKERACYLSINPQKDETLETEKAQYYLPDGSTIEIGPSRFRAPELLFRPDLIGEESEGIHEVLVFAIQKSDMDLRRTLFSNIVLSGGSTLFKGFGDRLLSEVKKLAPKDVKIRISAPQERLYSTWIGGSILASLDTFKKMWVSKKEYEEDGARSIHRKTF
UniProt Q14203: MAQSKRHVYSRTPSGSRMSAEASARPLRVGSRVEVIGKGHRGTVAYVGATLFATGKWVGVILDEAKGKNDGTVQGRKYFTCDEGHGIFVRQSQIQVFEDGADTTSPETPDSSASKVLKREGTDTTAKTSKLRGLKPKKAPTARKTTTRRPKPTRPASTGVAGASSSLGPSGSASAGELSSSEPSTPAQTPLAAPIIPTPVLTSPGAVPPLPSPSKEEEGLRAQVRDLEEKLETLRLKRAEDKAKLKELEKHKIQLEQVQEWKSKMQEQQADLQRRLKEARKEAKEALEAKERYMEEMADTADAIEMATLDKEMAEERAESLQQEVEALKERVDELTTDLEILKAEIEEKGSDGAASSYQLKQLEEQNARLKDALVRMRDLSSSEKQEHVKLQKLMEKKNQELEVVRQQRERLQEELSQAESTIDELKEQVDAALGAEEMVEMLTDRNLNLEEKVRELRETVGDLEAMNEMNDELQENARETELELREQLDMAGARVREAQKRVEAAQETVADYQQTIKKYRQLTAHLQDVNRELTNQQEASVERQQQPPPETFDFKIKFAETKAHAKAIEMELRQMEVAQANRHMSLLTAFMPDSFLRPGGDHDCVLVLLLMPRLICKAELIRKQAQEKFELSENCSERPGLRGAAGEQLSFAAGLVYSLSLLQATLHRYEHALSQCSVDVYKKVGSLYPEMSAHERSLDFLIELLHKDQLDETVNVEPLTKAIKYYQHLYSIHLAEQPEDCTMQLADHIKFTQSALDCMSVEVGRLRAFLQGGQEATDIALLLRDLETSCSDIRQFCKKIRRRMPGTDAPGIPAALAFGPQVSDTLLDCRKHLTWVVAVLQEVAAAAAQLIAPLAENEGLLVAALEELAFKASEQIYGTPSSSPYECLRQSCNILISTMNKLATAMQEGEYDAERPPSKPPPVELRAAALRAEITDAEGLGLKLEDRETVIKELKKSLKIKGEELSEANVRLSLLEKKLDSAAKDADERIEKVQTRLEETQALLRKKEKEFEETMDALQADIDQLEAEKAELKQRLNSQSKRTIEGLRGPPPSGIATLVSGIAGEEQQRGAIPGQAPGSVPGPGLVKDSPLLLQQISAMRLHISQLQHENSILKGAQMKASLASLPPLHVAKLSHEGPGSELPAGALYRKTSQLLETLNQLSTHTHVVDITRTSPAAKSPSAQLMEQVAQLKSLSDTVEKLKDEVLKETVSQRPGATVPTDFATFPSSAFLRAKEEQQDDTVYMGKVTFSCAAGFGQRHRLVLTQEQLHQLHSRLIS
UniProt Q96GD4: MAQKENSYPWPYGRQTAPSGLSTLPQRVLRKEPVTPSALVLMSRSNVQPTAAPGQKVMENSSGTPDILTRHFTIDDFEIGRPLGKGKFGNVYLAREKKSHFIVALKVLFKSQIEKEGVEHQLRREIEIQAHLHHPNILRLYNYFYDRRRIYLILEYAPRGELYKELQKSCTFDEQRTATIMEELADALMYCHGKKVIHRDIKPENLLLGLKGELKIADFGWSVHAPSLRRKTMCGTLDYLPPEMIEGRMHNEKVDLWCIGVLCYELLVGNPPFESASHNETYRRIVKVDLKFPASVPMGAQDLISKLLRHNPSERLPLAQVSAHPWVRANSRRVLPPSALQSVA

What was measured:
[1] = target: T1, Hook2 (endogenous) (human (endogenous in HEK293T)) (UniProt Q96ED9); experiment: co-IP; endogenous proteins; HEK293T lysates in TAP lysis buffer (20 mM Tris-HCl pH 7.4, 150 mM NaCl, 0.5% NP-40) with antibody on protein-A/G beads, 3 h, 4°C; cells asynchronous or synchronized (G2, prometaphase, metaphase/anaphase, cytokinesis), with control or other siRNAs or Hook2 plasmids; immunoblot
T1 sequence: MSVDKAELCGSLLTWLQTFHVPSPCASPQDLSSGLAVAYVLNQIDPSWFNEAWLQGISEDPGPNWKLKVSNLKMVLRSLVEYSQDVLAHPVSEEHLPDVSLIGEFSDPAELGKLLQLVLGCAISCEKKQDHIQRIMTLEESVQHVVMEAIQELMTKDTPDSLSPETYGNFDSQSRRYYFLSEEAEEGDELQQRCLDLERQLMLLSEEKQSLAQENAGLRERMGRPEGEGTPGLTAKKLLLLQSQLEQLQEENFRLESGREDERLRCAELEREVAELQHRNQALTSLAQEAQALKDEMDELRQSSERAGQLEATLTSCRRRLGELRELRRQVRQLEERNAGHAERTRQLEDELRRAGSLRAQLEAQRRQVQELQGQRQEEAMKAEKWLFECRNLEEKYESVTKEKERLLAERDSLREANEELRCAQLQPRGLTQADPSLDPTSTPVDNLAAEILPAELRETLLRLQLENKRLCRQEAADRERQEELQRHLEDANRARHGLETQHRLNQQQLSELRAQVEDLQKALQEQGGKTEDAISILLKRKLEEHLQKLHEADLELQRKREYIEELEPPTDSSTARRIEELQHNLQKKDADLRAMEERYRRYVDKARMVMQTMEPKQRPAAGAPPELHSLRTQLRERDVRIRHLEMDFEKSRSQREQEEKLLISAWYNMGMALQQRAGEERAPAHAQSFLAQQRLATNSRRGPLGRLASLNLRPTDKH

[2] = target: GST-tagged LIC1 (389–523 aa) (UniProt Q9Y6G9); experiment: pull-down; 2 µg MBP-tagged Hook2 fragments incubated with GST or GST-LIC1 (389–523 aa) on glutathione beads, 2 h, 250 µl of 50 mM Tris pH 7.4, 100 mM NaCl, 1 mM DTT, 0.1% Tween 20, 2 mg/ml BSA; immunoblot anti-MBP; both purified
[3] = target: p50/dynamitin (human (endogenous in HEK293T)) (UniProt Q13561); experiment: co-IP; endogenous proteins; HEK293T lysates in TAP lysis buffer (20 mM Tris-HCl pH 7.4, 150 mM NaCl, 0.5% NP-40) with antibody on protein-A/G beads, 3 h, 4°C; cells asynchronous or synchronized (G2, prometaphase, metaphase/anaphase, cytokinesis), with control or other siRNAs or Hook2 plasmids; immunoblot
[4] = target: Arp1 (human (endogenous in HEK293T)) (UniProt P61163); experiment: as above
[5] = target: p150^glued (human (endogenous in HEK293T)) (UniProt Q14203); experiment: as above
[6] = target: p150^glued (human (endogenous in HEK293T)) (UniProt Q14203); experiment: co-IP; lysates of HEK293T cells transfected with HA-tagged Hook2 (WT, Q143A, I150A; also siRNA-resistant forms in Hook2 siRNA-treated cells); IP with anti-DIC or anti-p150^glued, immunoblot anti-HA

Molecule: Arp1 (from UniProt P61163 1-376)
- binding [1]: binds

Molecule: p50/dynamitin (from UniProt Q13561 1-401)
- binding [1]: binds

Molecule: Aurora B kinase (from UniProt Q96GD4 1-344)
- binding [1]: binds

B1: MBP-tagged Hook2-Hook (N179) (domain or fragment, UniProt Q96ED9 1-179)
chain: MSVDKAELCGSLLTWLQTFHVPSPCASPQDLSSGLAVAYVLNQIDPSWFNEAWLQGISEDPGPNWKLKVSNLKMVLRSLVEYSQDVLAHPVSEEHLPDVSLIGEFSDPAELGKLLQLVLGCAISCEKKQDHIQRIMTLEESVQHVVMEAIQELMTKDTPDSLSPETYGNFDSQSRRYYF
- binding [2]: binds

B2: Hook2 (endogenous) (protein, UniProt Q96ED9 1-719)
chain: T1 sequence
- binding [3]: binds
- binding [4]: binds
- binding [5]: binds

B3: HA-tagged Hook2 WT (protein, UniProt Q96ED9 1-719)
chain: T1 sequence
- binding [6]: binds

B4: HA-tagged Hook2 Q143A (protein, UniProt Q96ED9 1-719)
chain: T1 sequence with Q143A
- binding [6]: binds

B5: MBP-tagged Hook2 Hook+CC1A (N230) (domain or fragment, UniProt Q96ED9 1-230)
chain: MSVDKAELCGSLLTWLQTFHVPSPCASPQDLSSGLAVAYVLNQIDPSWFNEAWLQGISEDPGPNWKLKVSNLKMVLRSLVEYSQDVLAHPVSEEHLPDVSLIGEFSDPAELGKLLQLVLGCAISCEKKQDHIQRIMTLEESVQHVVMEAIQELMTKDTPDSLSPETYGNFDSQSRRYYFLSEEAEEGDELQQRCLDLERQLMLLSEEKQSLAQENAGLRERMGRPEGEGT
- binding [2]: binds

B6: HA-tagged Hook2 I150A (protein, UniProt Q96ED9 1-719)
chain: T1 sequence with I150A
- binding [6]: binds

B7: CYK4 (protein, UniProt Q9H0H5 1-632)
chain: MDTMMLNVRNLFEQLVRRVEILSEGNEVQFIQLAKDFEDFRKKWQRTDHELGKYKDLLMKAETERSALDVKLKHARNQVDVEIKRRQRAEADCEKLERQIQLIREMLMCDTSGSIQLSEEQKSALAFLNRGQPSSSNAGNKRLSTIDESGSILSDISFDKTDESLDWDSSLVKTFKLKKREKRRSTSRQFVDGPPGPVKKTRSIGSAVDQGNESIVAKTTVTVPNDGGPIEAVSTIETVPYWTRSRRKTGTLQPWNSDSTLNSRQLEPRTETDSVGTPQSNGGMRLHDFVSKTVIKPESCVPCGKRIKFGKLSLKCRDCRVVSHPECRDRCPLPCIPTLIGTPVKIGEGMLADFVSQTSPMIPSIVVHCVNEIEQRGLTETGLYRISGCDRTVKELKEKFLRVKTVPLLSKVDDIHAICSLLKDFLRNLKEPLLTFRLNRAFMEAAEITDEDNSIAAMYQAVGELPQANRDTLAFLMIHLQRVAQSPHTKMDVANLAKVFGPTIVAHAVPNPDPVTMLQDIKRQPKVVERLLSLPLEYWSQFMMVEQENIDPLHVIENSNAFSTPQTPDIKVSLLGPVTTPEHQLLKTPSSSSLSQRVRSTLTKNTPRFGSKSKSATNLGRQGNFFASPMLK
- binding [1]: binds

B8: KIF4 (protein, UniProt O95239 1-1232)
chain: MKEEVKGIPVRVALRCRPLVPKEISEGCQMCLSFVPGEPQVVVGTDKSFTYDFVFDPSTEQEEVFNTAVAPLIKGVFKGYNATVLAYGQTGSGKTYSMGGAYTAEQENEPTVGVIPRVIQLLFKEIDKKSDFEFTLKVSYLEIYNEEILDLLCPSREKAQINIREDPKEGIKIVGLTEKTVLVALDTVSCLEQGNNSRTVASTAMNSQSSRSHAIFTISLEQRKKSDKNSSFRSKLHLVDLAGSERQKKTKAEGDRLKEGININRGLLCLGNVISALGDDKKGGFVPYRDSKLTRLLQDSLGGNSHTLMIACVSPADSNLEETLNTLRYADRARKIKNKPIVNIDPQTAELNHLKQQVQQLQVLLLQAHGGTLPGSITVEPSENLQSLMEKNQSLVEENEKLSRGLSEAAGQTAQMLERIILTEQANEKMNAKLEELRQHAACKLDLQKLVETLEDQELKENVEIICNLQQLITQLSDETVACMAAAIDTAVEQEAQVETSPETSRSSDAFTTQHALRQAQMSKELVELNKALALKEALARKMTQNDSQLQPIQYQYQDNIKELELEVINLQKEKEELVLELQTAKKDANQAKLSERRRKRLQELEGQIADLKKKLNEQSKLLKLKESTERTVSKLNQEIRMMKNQRVQLMRQMKEDAEKFRQWKQKKDKEVIQLKERDRKRQYELLKLERNFQKQSNVLRRKTEEAAAANKRLKDALQKQREVADKRKETQSRGMEGTAARVKNWLGNEIEVMVSTEEAKRHLNDLLEDRKILAQDVAQLKEKKESGENPPPKLRRRTFSLTEVRGQVSESEDSITKQIESLETEMEFRSAQIADLQQKLLDAESEDRPKQRWENIATILEAKCALKYLIGELVSSKIQVSKLESSLKQSKTSCADMQKMLFEERNHFAEIETELQAELVRMEQQHQEKVLYLLSQLQQSQMAEKQLEESVSEKEQQLLSTLKCQDEELEKMREVCEQNQQLLRENEIIKQKLTLLQVASRQKHLPKDTLLSPDSSFEYVPPKPKPSRVKEKFLEQSMDIEDLKYCSEHSVNEHEDGDGDDDEGDDEEWKPTKLVKVSRKNIQGCSCKGWCGNKQCGCRKQKSDCGVDCCCDPTKCRNRQQGKDSLGTVERTQDSEGSFKLEDPTEVTPGLSFFNPVCATPNSKILKEMCDVEQVLSKKTPPAPSPFDLPELKHVATEYQENKAPGKKKKRALASNTSFFSGCSPIEEEAH
- binding [1]: binds

B9: MBP-tagged Hook2 Hook+CC1 (N427) WT (domain or fragment, UniProt Q96ED9 1-427)
chain: MSVDKAELCGSLLTWLQTFHVPSPCASPQDLSSGLAVAYVLNQIDPSWFNEAWLQGISEDPGPNWKLKVSNLKMVLRSLVEYSQDVLAHPVSEEHLPDVSLIGEFSDPAELGKLLQLVLGCAISCEKKQDHIQRIMTLEESVQHVVMEAIQELMTKDTPDSLSPETYGNFDSQSRRYYFLSEEAEEGDELQQRCLDLERQLMLLSEEKQSLAQENAGLRERMGRPEGEGTPGLTAKKLLLLQSQLEQLQEENFRLESGREDERLRCAELEREVAELQHRNQALTSLAQEAQALKDEMDELRQSSERAGQLEATLTSCRRRLGELRELRRQVRQLEERNAGHAERTRQLEDELRRAGSLRAQLEAQRRQVQELQGQRQEEAMKAEKWLFECRNLEEKYESVTKEKERLLAERDSLREANEELRCAQLQ
- binding [2]: binds

B10: MBP-tagged Hook2 N427 Q143A (domain or fragment, UniProt Q96ED9 1-427)
chain: B9 chain with Q143A
- binding [2]: no binding

B11: MBP-tagged Hook2 N427 I150A (domain or fragment, UniProt Q96ED9 1-427)
chain: B9 chain with I150A
- binding [2]: no binding
